Source: PMC4336329 (PLoS ONE, 2015)
The whole screen tested about 310,000 compounds, of which about 14,000 (4.5%) showed an effect of 50% or more. Effects have a minus sign here. Some of the results follow.

Molecular target: human ether-à-go-go-related gene (hERG) potassium channel (human, UniProt Q12809)
Assay: primary screen, population patch clamp on CHO cells stably expressing hERG
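Further: peak tail current of the secondary pulse compared with the same well before compound.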

Chain of human ether-à-go-go-related gene (hERG) potassium channel (Q12809 whole entry, looked up): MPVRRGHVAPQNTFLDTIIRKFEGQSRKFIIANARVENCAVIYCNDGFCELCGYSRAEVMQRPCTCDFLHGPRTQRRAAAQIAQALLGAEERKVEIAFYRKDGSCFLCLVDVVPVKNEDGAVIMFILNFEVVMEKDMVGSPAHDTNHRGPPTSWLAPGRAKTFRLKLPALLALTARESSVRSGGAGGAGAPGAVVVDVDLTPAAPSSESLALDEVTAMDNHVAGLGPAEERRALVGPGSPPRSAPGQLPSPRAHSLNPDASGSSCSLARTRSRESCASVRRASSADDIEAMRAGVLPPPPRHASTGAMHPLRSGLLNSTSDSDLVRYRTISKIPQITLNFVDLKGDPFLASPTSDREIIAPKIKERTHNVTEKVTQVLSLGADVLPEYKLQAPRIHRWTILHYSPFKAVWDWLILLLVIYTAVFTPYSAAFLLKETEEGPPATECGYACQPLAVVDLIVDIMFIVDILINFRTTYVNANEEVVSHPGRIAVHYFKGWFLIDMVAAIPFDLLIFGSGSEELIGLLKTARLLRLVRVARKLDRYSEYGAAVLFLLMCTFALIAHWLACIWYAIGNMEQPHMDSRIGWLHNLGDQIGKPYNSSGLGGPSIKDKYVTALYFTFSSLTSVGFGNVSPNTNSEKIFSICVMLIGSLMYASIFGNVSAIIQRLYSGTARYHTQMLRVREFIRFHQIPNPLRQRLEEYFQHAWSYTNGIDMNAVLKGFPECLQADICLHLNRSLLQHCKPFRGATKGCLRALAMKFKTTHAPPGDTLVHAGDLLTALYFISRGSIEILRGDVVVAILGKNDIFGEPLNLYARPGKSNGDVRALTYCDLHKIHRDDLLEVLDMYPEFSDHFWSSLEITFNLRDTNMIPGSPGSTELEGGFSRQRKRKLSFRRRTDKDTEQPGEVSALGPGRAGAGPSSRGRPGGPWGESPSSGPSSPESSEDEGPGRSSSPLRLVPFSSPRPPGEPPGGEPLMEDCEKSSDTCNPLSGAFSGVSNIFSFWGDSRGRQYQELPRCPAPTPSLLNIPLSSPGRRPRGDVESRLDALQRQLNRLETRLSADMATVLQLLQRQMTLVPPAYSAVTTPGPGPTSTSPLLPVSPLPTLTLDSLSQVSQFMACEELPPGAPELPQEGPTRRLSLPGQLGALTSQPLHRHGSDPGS

SMILES | hERG current change (%, negative = inhibition) at 10uM
Clc1cc2c(cc1/C=N/Nc1nc(N3CCOCC3)nc(N3CCOCC3)n1)OCO2 | 0.865%
O=C(CNS(=O)(=O)c1ccccc1)NCc1cccnc1 | 8.46%
Nc1c(Cl)cc(C(=O)c2c3ccc([N+](=O)[O-])cc3[n+]([O-])n2CCC[NH3+])cc1Cl.O=C([O-])C(F)(F)F | -43.5%
Cc1cnc(C(=O)OCc2c(C)cc(C(C)(C)C)cc2C)cn1 | 8.68%
O=C1CN(C(=O)COC(=O)CCC(=O)c2ccc3c(c2)OCCO3)c2ccccc2N1 | -27.2%
CC(=O)N1c2ccccc2C(=O)OC1c1cccnc1 (stereo not drawn) | 19.5%
O=C(NCC(=O)N(Cc1ccccc1)C(C(=O)NCC1CCCO1)c1ccccc1)c1ccco1 (stereo not drawn) | -9.05%
COc1ccc(CCC(=O)NCc2ccco2)cc1 | 0.176%
C[C@@H](NC(=O)C1(c2ccccc2)CCN(C(=O)OC(C)(C)C)CC1)C(=O)N[C@@H](C(=O)O)c1ccccc1 | 11.6%
CN(CC(=O)Nc1cccc(F)c1)C(=O)/C=C/c1cc(Br)ccc1OC(F)F | -54.8%
Cc1onc(-c2ccccc2)c1C(=O)N1CCN(c2ccc([N+](=O)[O-])cc2)CC1 | -36.4%
NS(=O)(=O)c1cccc(NC(=O)COC(=O)CC2CC3CCC2C3)c1 (stereo not drawn) | -18.4%
C/C(=N\NC(=O)c1cc([N+](=O)[O-])cc([N+](=O)[O-])c1)c1ccco1 | 4.39%
CC(=O)Nc1ccc(S(=O)(=O)N2CCN(c3nc(C)cc(C)n3)CC2)cc1 | 5.68%
Cc1ccc2nc(-c3ccccc3NC(=O)CCC(=O)O)c(=O)[nH]c2c1 | 17.1%
CCO[C@@H]1OC(C(=O)N2CCN(Cc3ccc4c(c3)OCO4)CC2)=C[C@H](c2ccc(Br)cc2)[C@H]1CCCO | -20%
COc1cc(Br)c(CNc2cc(C)ccc2C)cc1OC.O=C(O)C(=O)O | 13%
Cc1ccc(C(=O)NCC(=O)OCC(=O)NC2CCCCCCC2)cc1 | -12.9%
COc1cc(OC)c(NC(=O)C2CC(=O)N(c3ccc4c(c3)OCCO4)C2)cc1Cl (stereo not drawn) | -5.13%
Cn1nnnc1SC(C(=O)Nc1cccc(C(F)(F)F)c1)c1ccccc1 (stereo not drawn) | -16.4%
CC(=O)n1cc([C@@H]2C=C(C(=O)N3CCN(Cc4ccc5c(c4)OCO5)CC3)O[C@H](OCc3ccc(CO)cc3)C2)c2ccccc21 | -17.5%

SMILES | hERG current change (%, negative = inhibition) at 10uM
Cc1ccc(N2C(=O)CSC23C(=O)Nc2ccccc23)cc1 (stereo not drawn) | 4.85%
CC(=O)N1CC(c2ccccc2)C(c2ccc(Cl)cc2)=N1 (stereo not drawn) | -5.56%
O=C(Nc1ccc2c(c1)OCO2)C1CCCCC1 | 0.102%
N#Cc1cccc(NC(=O)CN2CCCCCC2)c1 | -10.9%
CC(=O)Nc1ccc(NC(=O)CN(c2ccccc2Cl)S(C)(=O)=O)cc1 | -3.6%
CC(C)c1[nH]nc2c1C(c1ccc(OC(=O)c3ccco3)cc1)C(C#N)=C(N)O2 (stereo not drawn) | 6.55%
CCN(CC)C(=O)c1oc2ccc(S(=O)(=O)N3CC(C)CC(C)C3)cc2c1C (stereo not drawn) | 13.6%
O=c1oc2cc(Oc3ccc(C(F)(F)F)cc3[N+](=O)[O-])ccc2c2c1CCC2 | -33%
COCCCNC(=O)c1ccc(C(=O)NCCCOC)cc1 | -0.736%
CC(C)(C)c1ccccc1OCCOCCNCc1ccccc1.O=C(O)C(=O)O | -18.4%
CC1CN(S(=O)(=O)c2ccc(NC(=O)c3cc(-c4ccccc4O)n[nH]3)cc2)CC(C)O1 (stereo not drawn) | 17.5%
CCc1nn(CC(=O)NCCc2ccc(Cl)cc2)c(=O)c2cccn12 | -19.2%
COc1cccc(/C=N/NC(=O)c2ccc(=O)n(C)c2)c1OC | 3.32%
Nc1c(Cl)c(Cl)nc(C(=O)OCC(=O)NCc2ccccc2)c1Cl | -18.2%
COC(C)(C)[C@]12CC(O)(C(C)C)ON1[C@H]1CCCCC1N2O (stereo partly drawn) | 7.35%
O=C(NCc1ccc(F)cc1)C(=O)Nc1nc(C23CC4CC(CC(C4)C2)C3)cs1 | -1.52%
CNC(=S)N(Cc1ccc2c(c1)OCO2)C1CC(=O)N(c2ccccc2)C1=O (stereo not drawn) | -35.6%
O=C(CCNS(=O)(=O)c1cccc2nonc12)Nc1ccc(Cl)cc1 | -11.8%
C=CCN=Cc1sc2ccc(OCC)cc2c1O | -6.39%
Cc1csc2nc(CSc3nc4ccccc4o3)c(Br)n12 | 7.03%
Oc1ccc(-c2nc3ncccn3c2Nc2ccc3c(c2)OCCO3)cc1 | -3.32%
